Source: PubChem BioAssay AID1347417 (National Center for Advancing Translational Sciences (NCATS), 2020)
The whole screen tested about 120,000 compounds, of which about 5,300 (4.4%) were called active. This list was built around the results that the source calls inconclusive (neither active nor inactive); the mix of calls is not that of the screen. Calls come from the whole dose curve; as a rule, active = well fitted inhibition curve with a large enough effect; inconclusive = small, poorly fitted or top-dose-only effect; inactive = no such curve, though single readings can be large or run the other way. A potency beside an inconclusive call is a rough fit, not a confirmed value.

Test: qHTS Primary assay for Inhibitors of Plasmodium falciparum Dd2 growth in vitro; note: nearly all actives have a fitted effect of over 65% in size;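 for activity, negative = inhibition: plate controls were DMSO vehicle for no effect and reference drug for full effect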
Conditions: P. falciparum Dd2 growth, SYBR Green, 72 h; activity, negative = inhibition: at 28.9 µM (top of the series) unless noted; series mostly up to 28.9 µM
Procedure, shortened: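 Readout: SYBR Green fluorescence, 485 nm excitation, 535 nm emission, after ~16 h lysis at 37C. Before that, Dd2-infected red cells (2.5% hematocrit) grew 72 h with compound, 29 uM top final concentration.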
Potency is the fitted concentration of half-maximal effect; tags give direction and shape of the fitted curve.

| SMILES | activity, negative = inhibition | outcome | Potency |
| --- | --- | --- | --- |
| COc1ccc(NC(=O)c2cnc(N3CCCC3)nc2)cc1OC | inactive: 6.6% | – | – |
| O=C1CC(c2ccccc2)N(C(=O)CNC(=O)NC2CCCCC2)CCCCCN1 (stereo not drawn) | – | inactive | – |
| CCc1cccc2c(C(CC(=O)N3CCC(C)CC3)c3cccc(C)c3)c[nH]c12 (stereo not drawn) | – | – | inconclusive: 0.316 µM [inhibitor, full curve] |
| CCCC1=Nc2cc(C(=O)N3CCC(C(=O)OCC)CC3)ccc2Sc2ccccc21 | – | – | inconclusive: 11.2 µM [inhibitor, single point] |
| CN1CCCCC(CC(=O)NCCc2ccccc2)C1=O (stereo not drawn) | – | – | inconclusive: 0.282 µM [inhibitor, full curve, poor fit] |
| COc1ccc(CN2CCC3(CC2)C(=NC2CCCCC2)NC(=O)N3c2cc(F)cc(F)c2)cc1 | – | – | inconclusive: 11.2 µM [inhibitor, single point] |
| O=C(NC1CCCNC1)C1CCN(c2nc(-c3ccccc3)nc3c2CCC3)CC1 (stereo not drawn) | – | – | inconclusive: 11.2 µM [inhibitor, partial curve, poor fit] |
| Cc1cccc(NC(=O)N2CCC(CC(=O)NCc3ccccc3)C2)c1C (stereo not drawn) | inactive: -12.7% | – | – |
| CC(C)c1nnc(C2CN(C(=O)CCN3CCOCC3)CC23CCOCC3)o1 (stereo not drawn) | inactive: 11.9% | – | – |
| O=C(c1ccc2ccccc2n1)N1CCN(C(=O)c2nnn3c2COC(c2ccccc2)C3)CC1 (stereo not drawn) | – | – | active: 6.31 µM |
| Cc1ccsc1C(=O)N1CCC2(CC1)N=C(c1cccc(Br)c1)NO2 | inactive: -8.62% | – | – |
| Fc1ccc2nc([C@H]3CCN(Cc4ccccc4F)C3)[nH]c2c1 | – | – | inconclusive: 6.31 µM [inhibitor, partial curve, poor fit] |
| CCC(Sc1nc2n[nH]c(C)c2c(=N)n1-c1ccccc1Cl)C(=O)N(CC)CC (stereo not drawn) | – | – | inconclusive: 11.2 µM [inhibitor, single point] |
| NCCC(=O)N1CCC(n2nccc2NC(=O)c2ccc3c(c2)OCO3)CC1 | inactive: 1.91% | – | – |
| COc1ccccc1CNC(=O)c1ccc2c(c1)N(C)C1CCCCN1C2=O (stereo not drawn) | – | inactive | – |
| COc1cccc(C(=O)N2CC(Oc3ccc(-c4noc(-c5ccccc5)n4)cc3)C2)c1 | – | – | inconclusive: 2.82 µM [inhibitor, single point] |
| CC(NC(=O)c1ccc2c(c1)sc1nc(-c3ccc(F)cc3)cn12)C12CC3CC(CC(C3)C1)C2 (stereo not drawn) | – | – | inconclusive: 10 µM [inhibitor, single point] |
| FC(F)(F)c1cccc(Nc2c3c(nc4ccc(Cl)cc24)CCC3)c1 | – | – | inconclusive: 11.2 µM [inhibitor, single point] |
| C=CCOC(=O)Nc1nc2c(s1)C[C@@H]1[C@](C)(CO)[C@H](O)CC[C@@]1(C)[C@@H]2CC(=O)N(CC)CC | – | – | inconclusive: 14.1 µM [inhibitor, single point] |
| COc1cccc(-c2cc(CNC(=O)C3COc4c(cccc4OC)C3)no2)c1 (stereo not drawn) | inactive: -2.44% | – | – |
| CCn1cc(S(=O)(=O)N2CCn3c(nn(CC4CC4)c3=O)C2)cn1 | inactive: -7.02% | – | – |
| O=C1NCCCCCCN(C(=O)c2ccco2)[C@H]2C[C@H](C(=O)N3CCc4ccccc4C3)C[C@@H]12 | – | – | inconclusive: 7.08 µM [inhibitor, partial curve, poor fit] |
| CN1CCN(Cc2ccccc2Oc2ccc(C(F)(F)F)cn2)CC1 | – | – | inconclusive: 1.26 µM [inhibitor, partial curve] |

| SMILES | activity, negative = inhibition | outcome | Potency |
| --- | --- | --- | --- |
| O=C(NCC(F)F)C1CN(c2ccc(F)cc2)C(=O)N1 (stereo not drawn) | inactive: 1.58% [at 44.1 µM] | – | – |
| C[C@]1(CO)C2CC[C@@H](O)[C@@H](CC(=O)N3CCCC3)[C@]2(C)CC[C@H]1OC(=O)Nc1cccc(F)c1 (stereo partly drawn) | inactive: -5.8% | – | – |
| CN(C)[C@H]1CCN(C(=O)c2ccc(SCCO)cc2)C[C@H]1CCC(=O)O | inactive: -4.89% | – | – |
| CNC(=O)N1CCC(C2CCN(C(=O)C3CCCC3)C2)CC1 (stereo not drawn) | inactive: -10.9% | – | – |
| O=C1NC(=NC2CCCC2)C2(CCN(Cc3ccc(F)cc3)C2)N1c1cc(F)cc(F)c1 (stereo not drawn) | – | – | active: 2 µM |
| O=C(c1nccc2ccccc12)N1CCc2c(nc3cc(-c4ccccc4)[nH]n3c2=O)C1 | – | – | inconclusive: 3.98 µM [inhibitor, single point] |
| CS(=O)(=O)N1CCC(C2CCN(C(=O)CN3CCOCC3)C2)CC1 (stereo not drawn) | inactive: -9.1% | – | – |
| O=C(CCc1nnn2c1CN(C(=O)NCCc1ccccc1)CC2)N1CCOCC1 | inactive: -0.272% | – | – |
| CCCOc1ccc(C(=O)N(Cc2ccco2)Cc2ccco2)cc1 | inactive: 24.2% | – | – |
| COc1cccc(-c2cc(C3CCN(S(=O)(=O)c4ccc(C(C)=O)cc4)CC3)[nH]n2)c1 | – | – | inconclusive: 2 µM [inhibitor, full curve, poor fit] |
| COc1cccc(-c2cc3c(=O)n(CCNC(=O)c4ccccc4)ccn3n2)c1 | – | – | inconclusive: 3.98 µM [inhibitor, single point] |
| CN(C)c1cc(=O)c2ccnc(N3CCN(c4ccccn4)CC3)c2o1 | – | – | inconclusive: 1 µM [inhibitor, partial curve] |
| Cc1cn2nc(C(=O)NCc3ccc(F)cc3F)cc2c(=O)[nH]1 | – | – | active: 3.16 µM |
| CCc1ccc(C(=O)CC2(O)C(=O)N(CCc3ccccc3)c3ccc(Cl)cc32)cc1 (stereo not drawn) | – | – | inconclusive: 3.98 µM [inhibitor, single point] |
| Cc1ccc(N2C(=S)N[C@H]3[C@@H](O)[C@H](O)C[C@@H](C(=O)NCc4cccs4)[C@H]32)cc1Cl | – | – | inconclusive: 8.91 µM [inhibitor, partial curve, poor fit] |
| Cc1ccc2nc(Cl)c3cc(C(=O)N4CCCCC4)sc3c2c1 | inactive: -25.9% | – | – |
| CCCc1noc(CN(C)C(=O)[C@@]23CNC[C@@H]2CN(Cc2ccccc2)C3)n1 | inactive: -25.9% | – | – |
| Cn1c(=O)c2c(-c3ccc(Cl)cc3)n(CCc3ccccc3)cc2n(C)c1=O | – | – | inconclusive: 11.2 µM [inhibitor, partial curve] |
| Cc1cc(C)c(Cn2c(=O)n(CCCC(=O)NCc3ccc4c(c3)OCO4)c(=O)c3sccc32)c(C)c1 | – | – | inconclusive: 15.8 µM [inhibitor, single point] |
| COC(=O)CNC(=O)N1CCCN(S(C)(=O)=O)C(c2ccccc2)CC(=O)NCC1 (stereo not drawn) | inactive: -0.0196% | – | – |
| CCS(=O)(=O)Nc1ccc(C2(C(=O)NC3CCCC3)CCCCC2)cc1 | inactive: -8.8% | – | – |
| Cc1ccc(-n2ncc(C(=O)NCc3ccco3)c2C2CCN(C(=O)OC(C)(C)C)CC2)cc1 | – | – | inconclusive: 7.08 µM [inhibitor, partial curve, poor fit] |
| CC(C)(C)CNC1(Cc2cc(-c3cccc(O)c3)on2)COC1 | – | – | inconclusive: 20 µM [inhibitor, single point] |

| SMILES | activity, negative = inhibition | outcome | Potency |
| --- | --- | --- | --- |
| CN(C)[C@@H]1CN(Cc2ccc(Br)o2)CC[C@@H]1CNC(=O)C1CC1 | – | inactive | – |
| O=C(NCCc1nc(-c2ccccc2)cs1)C1CC(=O)N(c2n[nH]c3ccccc23)C1 (stereo not drawn) | inactive: -3.15% | – | – |
| Cc1nc(C)c(C(=O)N2Cc3ccccc3C(O)C2)s1 (stereo not drawn) | inactive: 9.17% | – | – |
| CCOc1ccc(CC(=O)N2CCCC3(C2)Nc2cccnc2NC3=NC2CCCC2)cc1 (stereo not drawn) | – | – | inconclusive: 0.708 µM [inhibitor, full curve, poor fit] |
| CC(C)c1ccc(Nc2c(-c3ccccn3)nc3ccccn23)cc1 | – | – | active: 4.47 µM |
| O=C(NCCc1ccc(Cl)cc1)C1CCN(S(=O)(=O)c2ccc3[nH]ccc3c2)CC1 | – | – | inconclusive: 17.8 µM [inhibitor, single point] |
| Cc1ccc(CN2CCC3(CC2)COCCN3C(=O)OCc2ccccc2)o1 | – | – | inconclusive: 7.94 µM [inhibitor, partial curve] |
| O=C(CCn1ccn2nc3c(c2c1=O)CCCC3)Nc1cccc(F)c1 | – | – | inconclusive: 10 µM [inhibitor, single point] |
| COc1cccc(CNC(=O)C2CCCN(c3nnc(-n4c(C)ccc4C)s3)C2)c1OC (stereo not drawn) | – | – | inconclusive: 7.08 µM [inhibitor, partial curve, poor fit] |
| CCc1cccc(CC)c1NC(=O)CN(C)S(=O)(=O)c1ccc2c(c1)n(C)c(=O)c(=O)n2C | inconclusive: -31.2% [inhibitor] [at 0.594 µM] | – | – |
| COc1ccc(OC)c(CCNC(=O)c2nc(-c3ccc(Cl)cc3)n3c2CCCCC3)c1 | – | – | inconclusive: 0.178 µM [inhibitor, full curve, poor fit] |
| Cc1noc(C)c1S(=O)(=O)N1CCOCCNC(=O)[C@@H]2CCC[C@@H]21 | inactive: -13.2% | – | – |
| O=C(C1CC1)N(C1CCOCC1)C1CCN(S(=O)(=O)c2ccc3c(c2)CCCC3)CC1 | – | – | inconclusive: 4.47 µM [inhibitor, partial curve, poor fit] |
| CN1CCN(C(=O)c2cc(COc3ccc(F)cc3F)on2)CC1c1ccccc1 (stereo not drawn) | – | – | inconclusive: 12.6 µM [inhibitor, single point] |
| Cc1ccc(C)c(NC(=O)CN2C(=O)NC(c3ccccc3Cl)C3=C2COC3=O)c1 (stereo not drawn) | – | – | inconclusive: 17.8 µM [inhibitor, single point] |
| O=C(NC1CC1)[C@H]1O[C@H](CCN2CCOCC2)CC[C@@H]1O | inactive: -22.5% [at 44.1 µM] | – | – |
| Cc1oc2c(c1C(=O)N1CCN(c3ccccc3)CC1)CN(Cc1ccccc1)CC2 | – | – | active: 5.01 µM |
| COc1cccc2cc(-c3nc4sc5c(c4c(=O)[nH]3)CCC(C(C)(C)C)C5)c(=O)oc12 (stereo not drawn) | inactive: 115% | – | – |
| CC1=C(C(=O)OC(C)C)C(c2ccc(C)cc2C)N2C(CC(=O)N3CCCC3)=CSC2=N1 (stereo not drawn) | – | – | inconclusive: 0.794 µM [inhibitor, full curve, poor fit] |
| COc1ccc(S(=O)(=O)c2c(Nc3cccc(Cl)c3)sc(C(=O)c3ccccc3)c2N)cc1 | – | – | active: 8.91 µM |
| CN1c2cc(C(=O)N3CCN(c4ccc(F)cc4)CC3)ccc2C(=O)N2CCCCC21 (stereo not drawn) | – | – | inconclusive: 6.31 µM [inhibitor, partial curve, poor fit] |
| CC(=O)N1Cc2ccccc2CC2(CCN(Cc3cccnc3)CC2)C1 | – | – | inconclusive: 10 µM [inhibitor, single point] |
